Several values for one entry are separate records, joined by “and”; a condition that tells them apart may be missing. Equal entries are not always repeated. The campaign covered roughly 230,000 compounds. About 3,600 (1.6%) were called active. The inconclusive results got no clear call from the source; some entries with a clear call stand among them for comparison. Calls come from the whole dose curve; as a rule, active = well fitted inhibition curve with a large enough effect (not every such curve was filed as active); inconclusive = small, poorly fitted or top-dose-only effect, or another doubt; inactive = no such curve, though single readings can be large or run the other way. A potency beside an inconclusive call is a rough fit, not a confirmed value.
Each compound was assayed against Lysine-specific demethylase 4E (Homo sapiens) (UniProt B2RXH2) (assay: qHTS Assay for Inhibitors of Human Jumonji Domain Containing 2E (JMJD2E)). Conditions: JMJD2E catalytic domain, FDH-coupled NADH fluorescence (FDH is formaldehyde dehydrogenase); series mostly up to 57.1 µM.
Chain of UniProt B2RXH2 (B2RXH2 whole entry, looked up, the tested form may be a part): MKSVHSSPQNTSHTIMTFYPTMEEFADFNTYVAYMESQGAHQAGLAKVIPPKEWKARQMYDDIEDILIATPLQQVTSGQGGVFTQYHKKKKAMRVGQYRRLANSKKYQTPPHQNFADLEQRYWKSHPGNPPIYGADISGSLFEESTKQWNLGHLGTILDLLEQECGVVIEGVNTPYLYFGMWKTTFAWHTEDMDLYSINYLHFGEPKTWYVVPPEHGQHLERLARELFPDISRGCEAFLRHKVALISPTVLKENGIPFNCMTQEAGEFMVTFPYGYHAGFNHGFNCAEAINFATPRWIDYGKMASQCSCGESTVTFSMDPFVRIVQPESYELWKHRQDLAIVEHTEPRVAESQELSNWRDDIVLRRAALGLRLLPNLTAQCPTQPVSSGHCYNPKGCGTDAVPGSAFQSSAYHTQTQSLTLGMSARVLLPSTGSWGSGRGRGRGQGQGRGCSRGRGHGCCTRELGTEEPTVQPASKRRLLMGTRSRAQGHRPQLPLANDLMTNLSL
With `CN(CC(=O)O)Cc1nc2ccccc2[nH]1` the Potency was “inactive”. For `CCCn1nc(NC(=O)c2cccs2)c2cc3cc(OC)ccc3nc21`, the Potency was inconclusive: 28.2 µM [inhibitor, partial curve]. `O=C(CNC(=O)c1cccs1)N/N=C/c1ccc(O)cc1O` was tested, and the Potency was active: 3.16 µM. With `CN(C1CCCCC1)S(=O)(=O)c1ccc2[nH]c(=O)oc2c1` the Potency was “inactive”. In the case of `COc1ccccc1CNC(=O)c1ccccc1N`, the Potency is reported as inconclusive: 28.2 µM [inhibitor, partial curve]. In the case of `Cc1ccc(CSC2=NCCN2C(=O)c2ccc([N+](=O)[O-])cc2)cc1`, the Potency is reported as “inactive”. In the case of `COC(=O)CSc1nc2ccc(C)cc2cc1C#N`, the Potency is reported as inconclusive: 35.5 µM [inhibitor, single point]. In the case of `COC(=O)c1ccccc1NC(=O)c1ccccc1SC`, the Potency is reported as “inactive”. In the case of `O=C(CO/N=C/c1ccc(OC(F)F)cc1)NC1CCCCC1`, the Potency is reported as “inactive”. `CN=C1S/C(=C\c2ccc(N3CCCC3)c(F)c2)C(=O)N1C` was tested, and the Potency was “inactive”. For `COc1cc2c(cc1OC)C(c1cc3cc(OC)c(OC)cc3[nH]c1=O)N(C(=O)C1CC1)CC2` (stereo not drawn), the Potency was inconclusive: 25.1 µM [inhibitor, partial curve]. `Cc1ccc(C(=O)Nc2nnc(NC(=S)Nc3ccccc3)s2)cc1` was tested, and the Potency was “inactive”. For `CC(=O)Nc1nc(C)c(-c2csc(Nc3ccccn3)n2)s1`, the Potency was inconclusive: 3.16 µM [inhibitor, single point] and inconclusive: 31.6 µM [inhibitor, partial curve]. With `CN(N=O)C(=O)N[C@H]1C(O)C(O)C(CO)O[C@@H]1O` (stereo partly drawn) the Potency was “inactive”. In the case of `C=C(C)CNC(=S)Nc1sc2c(c1C(=O)OCC)CC(C)(C)OC2`, the Potency is reported as “inactive”. For `Cn1c(N)c(C(=O)CCl)c(=O)n(C)c1=O`, the Potency was inconclusive: 35.5 µM [inhibitor, single point]. `O=C(CSc1nnnn1-c1ccccc1)Nc1ccc(N2CCOCC2)c(Cl)c1` was tested, and the Potency was “inactive”. `CC(=O)Nc1ccc(S(=O)(=O)NCCNc2ccccc2[N+](=O)[O-])cc1` was tested, and the Potency was “inactive”. With `Cn1cnnc1SC(C(=O)c1ccccc1)c1ccccc1` (stereo not drawn) the Potency was “inactive”. For `COc1ccc(-c2csc(-c3cccs3)n2)c(OC)c1`, the Potency was inconclusive: 35.5 µM [inhibitor, single point]. For `Cc1cc(/C=N/N2CCN(C)CC2)c(C)n1-c1ccccc1F`, the Potency was inconclusive: 20 µM [inhibitor, single point]. For `O=C(CCCO)N/N=C/c1ccccc1[N+](=O)[O-]`, the Potency was inconclusive: 39.8 µM [inhibitor, single point]. In the case of `O=C(NCCCN1CCOCC1)c1ccc2c(c1)N(Cc1ccccc1)CCS2`, the Potency is reported as inconclusive: 28.2 µM [inhibitor, partial curve]. `COC/C=C/C1=CC2=CC(=O)C(C)(OC(=O)c3cccs3)C(=O)C2=CO1` (stereo not drawn) was tested, and the Potency was “inactive”. `COC(=O)c1cccc(C(=O)Nc2ccc(F)cc2)n1` was tested, and the Potency was “inactive”. In the case of `Clc1ccc(Sc2ccc(/C=N/n3cnnc3)o2)cc1`, the Potency is reported as inconclusive: 35.5 µM [inhibitor, single point]. In the case of `Cc1ccc2cc(C(c3nnnn3C(C)(C)C)N3CCCCCC3)c(=O)[nH]c2c1` (stereo not drawn), the Potency is reported as inconclusive: 31.6 µM [inhibitor, partial curve]. In the case of `C[N+](C)(C)CCCC(=O)c1ccc2c(c1)OCO2`, the Potency is reported as inconclusive: 39.8 µM [inhibitor, single point]. With `Cc1ccc(-n2c(-c3ccco3)n[nH]c2=S)cc1` the Potency was inconclusive: 20 µM [inhibitor, partial curve]. `O=C1c2ccccc2CC1Sc1nnc(-c2ccncc2)o1` (stereo not drawn) was tested, and the Potency was “inactive”. With `COc1ccc(C(C#N)N2CCC(c3ccccc3)=N2)cc1OC` (stereo not drawn) the Potency was “inactive”. `N#CCSc1n[nH]c2nc3c(c(=O)n12)C1(CCCC1)Cc1ccccc1-3` was tested, and the Potency was inconclusive: 31.6 µM [inhibitor, partial curve]. With `Clc1ccccc1-c1nnn(Cc2ccc(-c3nn[nH]n3)cc2)n1` the Potency was “inactive”. `O=C(Nc1nc(-c2nc3ccccc3s2)cs1)C1COc2ccccc2O1` (stereo not drawn) was tested, and the Potency was inconclusive: 25.1 µM [inhibitor, partial curve]. For `Cc1ccc(CSCC(=O)N/N=C/c2ccc(OCC(=O)Nc3ccc(C)cc3)cc2)cc1`, the Potency was “inactive”. With `O=C(NC1CCN(C(=S)NCc2ccco2)CC1)C1CCCCC1` the Potency was “inactive”. For `O=C(Cc1ccccc1)Nc1nc(=O)c2ccccc2s1`, the Potency was “inactive”. In the case of `Fc1ccc(-c2nnc(CN3CCC(c4nc5ccccc5s4)CC3)o2)cc1`, the Potency is reported as “inactive”. With `COc1ccc(C2=Nc3cc(C)ccc3OC2)cc1` the Potency was inconclusive: 35.5 µM [inhibitor, single point]. In the case of `Cc1cccc(N2CCN(C(=S)Nc3ccc4nc(N5CCOCC5)cc(C)c4c3)CC2C)c1` (stereo not drawn), the Potency is reported as inconclusive: 28.2 µM [inhibitor, partial curve]. `CC(=O)NNC(=O)CN1C(=O)/C(=C/c2ccccc2)SC1=S` was tested, and the Potency was “inactive”. With `O=C(O)c1cccc(NC(=S)N/N=C/c2c[nH]c3ccccc23)c1` the Potency was inconclusive: 25.1 µM [inhibitor, single point]. In the case of `COc1ccc(N2C(=O)c3ccccc3NC2(C)C)cc1`, the Potency is reported as inconclusive: 31.6 µM [inhibitor, partial curve]. For `COc1cccc(/C=N/NC(=O)CN2CC(c3ccccc3)CC2=O)c1OC` (stereo not drawn), the Potency was inconclusive: 28.2 µM [inhibitor, partial curve]. `NC[C@H](O)c1ccc(O)c(O)c1` was tested, and the Potency was active: 10 µM. In the case of `COCCCNc1nc2nonc2nc1N1CCC(C(C)N2CCOCC2)CC1` (stereo not drawn), the Potency is reported as inconclusive: 22.4 µM [inhibitor, single point]. With `NS(=O)(=O)c1ccc(NC(=S)N2CCN(Cc3ccc(Cl)c(Cl)c3)CC2)cc1` the Potency was “inactive”. `O=C(NCc1cccnc1)c1ccc(S(=O)(=O)N2CCCCCC2)cc1` was tested, and the Potency was “inactive”. In the case of `CCOC(=O)C(=Nc1ccc(Cl)cc1)NO`, the Potency is reported as “inactive”. In the case of `COc1ccc(/C=C2\CCCc3c2nc2ccccc2c3C(=O)O)cc1OC`, the Potency is reported as inconclusive: 22.4 µM [inhibitor, partial curve]. With `Fc1ccc(-c2cnn3c(-c4cccs4)ccnc23)cc1` the Potency was “inactive”. `COc1ccc(Cl)cc1C(=O)Nc1ccc(NC(C)=O)cc1` was tested, and the Potency was “inactive”. `Cc1nc2ccc(NC(=S)N3CCN(c4ccccn4)CC3)cc2nc1C` was tested, and the Potency was “inactive”. For `Cc1ccc2nc(-c3ccc(S(=O)(=O)N4CCCCC4)cc3)cn2c1`, the Potency was inconclusive: 22.4 µM [inhibitor, partial curve]. In the case of `CCc1ccc(C2C(C#N)=C(N)SC(N)=C2C#N)cc1`, the Potency is reported as inconclusive: 31.6 µM [inhibitor, partial curve]. For `CC1CN(C)C(C)c2c1oc1ccc(N)cc21` (stereo not drawn), the Potency was inconclusive: 31.6 µM [inhibitor, single point]. For `Cc1[nH][nH]c(=O)c1C(c1c(C)[nH][nH]c1=O)c1cn(Cc2ccccc2Cl)c2ccccc12`, the Potency was inconclusive: 0.708 µM [inhibitor, full curve, poor fit]. With `O=C(CN1C(=O)/C(=C/c2ccccc2)SC1=S)NNC(=O)c1ccccc1O` the Potency was inconclusive: 17.8 µM [inhibitor, partial curve]. For `COc1ccc(-n2c(=S)[nH]c3sc4c(c3c2=O)CCN(C)C4)cc1`, the Potency was inconclusive: 35.5 µM [inhibitor, single point]. In the case of `CC(=O)Oc1ccc(C(=O)Nc2cccc(C(=O)c3cccc(NC(=O)c4ccc(OC(C)=O)cc4)c3)c2)cc1`, the Potency is reported as “inactive”. `CCC(C)(C)c1ccc(Oc2cccc(C(=O)O)c2)cc1` was tested, and the Potency was “inactive”. With `Cc1cccc2cc(COC(=O)c3ccco3)c(=O)[nH]c12` the Potency was inconclusive: 39.8 µM [inhibitor, single point]. `COc1ccc(-n2nc(C(=O)NCc3cc(OC)ccc3OC)c3c4ccccc4n(C)c3c2=O)cc1` was tested, and the Potency was inconclusive: 7.51 µM [inhibitor, single point]. For `Oc1c(Cl)cc(Cl)cc1C1Nc2ccccc2-n2cccc21` (stereo not drawn), the Potency was inconclusive: 11.2 µM [inhibitor, partial curve]. In the case of `Cc1ccc(N2CCN(C3=NC(=O)/C(=C\c4cn[nH]c4-c4ccccc4)S3)CC2)cc1`, the Potency is reported as “inactive”. With `Cc1sc2ncn(CC(=O)NCc3ccco3)c(=O)c2c1-c1ccc(F)cc1` the Potency was “inactive”. In the case of `CCOc1ccc2c(c1)C(N(CCN1CCOCC1)C(=S)Nc1ccccc1OC)CC(C)(C)O2` (stereo not drawn), the Potency is reported as “inactive”. In the case of `COc1ccc(CCNC(=O)C(=O)Nc2nccs2)cc1OC`, the Potency is reported as inconclusive: 39.8 µM [inhibitor, single point]. For `CCOC(=O)CNC(=O)CSc1ccc2nnc(-c3ccc(F)cc3)n2n1`, the Potency was inconclusive: 25.1 µM [inhibitor, partial curve]. For `COc1cc2[nH]c(=O)n(Cc3ccc(C(=O)NCC4CCCO4)cc3)c(=O)c2cc1OC` (stereo not drawn), the Potency was inconclusive: 22.4 µM [inhibitor, partial curve]. For `COc1cccc(C(=O)NC(=S)Nc2ccc(Cl)cc2C(=O)O)c1`, the Potency was inconclusive: 31.6 µM [inhibitor, partial curve]. `CC(C)C1NC2(C(=O)c3ccccc3C2=O)C2C(=O)N(c3ccc(F)cc3)C(=O)C12` (stereo not drawn) was tested, and the Potency was “inactive”. In the case of `N#C/C(=C\c1ccc([N+](=O)[O-])cc1)c1nc(C2CC2)cs1`, the Potency is reported as “inactive”. For `Cc1ccc(NC(=O)C2CC(Cl)=CCC2C(=O)O)c([N+](=O)[O-])c1` (stereo not drawn), the Potency was inconclusive: 44.7 µM [inhibitor, single point]. With `Cc1ccc(C(=O)c2ccccc2C(=O)OCC(=O)Nc2cccc([N+](=O)[O-])c2)cc1` the Potency was “inactive”. For `NC(=O)c1ccsc1NC(=O)CSc1nc2ccccc2c(=O)n1CCCO`, the Potency was “inactive”. `CCOC(=O)c1nn(-c2ccc3c(c2)OCO3)cc1O` was tested, and the Potency was inconclusive: 31.6 µM [inhibitor, partial curve]. For `COc1ccc(C)cc1NC(=O)c1ccccc1NS(=O)(=O)c1ccc(Cl)s1`, the Potency was “inactive”.

Source: PubChem BioAssay AID2147 (National Center for Advancing Translational Sciences (NCATS), 2009)
Note: nearly all actives have a fitted effect of over 50% in size.
Potency is the fitted concentration of half-maximal effect; tags give direction and shape of the fitted curve.
